According to PubChem BioAssay AID1477 (National Center for Advancing Translational Sciences (NCATS), 2009):
Among all 230,000 compounds or so, fewer than 10 were called active. Inconclusive means that the source gave no clear call. Such entries were picked first, then a sample of the others. The call rests on the fitted dose curve; in most records, active means well fitted curve in the direction sought with a large enough effect; inconclusive means small, poorly fitted or top-dose-only effect, or effect the other way, or another doubt; inactive means no such curve, though single readings can be large or run the other way. Potencies of inconclusive entries are left out as doubtful fits.

target: Runt-related transcription factor 1 (Homo sapiens) + Core-binding factor subunit beta (Homo sapiens) (UniProt Q01196+Q13951); assay: qHTS Assay for Compounds Blocking the Interaction Between CBF-beta and RUNX1 for the Treatment of Acute Myeloid Leukemia; details: AlphaScreen CBFb-His/RUNX1-biotin binding, biochemical; activity, negative = inhibition: at 59.8 µM (top of the series) unless noted; on activity, negative = inhibition: % of control where 0% means no effect
Procedure, shortened: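 Read-out: AlphaScreen. Format: His-CBF-beta with biotinylated RUNX1 (30 nM each) preincubated 20 min, compound 15 min, Ni-chelate plus streptavidin beads 90 min; room temperature throughout.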

UniProt Q01196, sequence (Q01196 whole entry, looked up): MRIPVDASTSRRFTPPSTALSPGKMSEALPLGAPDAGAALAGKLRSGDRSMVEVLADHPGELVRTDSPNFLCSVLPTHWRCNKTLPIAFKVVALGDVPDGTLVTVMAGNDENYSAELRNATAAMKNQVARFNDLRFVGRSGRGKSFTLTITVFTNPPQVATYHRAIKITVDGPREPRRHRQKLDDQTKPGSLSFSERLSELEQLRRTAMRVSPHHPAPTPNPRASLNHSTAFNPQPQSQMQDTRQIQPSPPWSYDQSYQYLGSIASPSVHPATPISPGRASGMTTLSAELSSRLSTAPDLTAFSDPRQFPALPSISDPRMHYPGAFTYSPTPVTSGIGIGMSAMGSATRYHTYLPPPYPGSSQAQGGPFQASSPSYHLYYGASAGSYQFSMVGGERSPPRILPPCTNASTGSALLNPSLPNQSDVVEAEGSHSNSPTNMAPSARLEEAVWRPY
UniProt Q01196, sequence (Q13951 whole entry, looked up): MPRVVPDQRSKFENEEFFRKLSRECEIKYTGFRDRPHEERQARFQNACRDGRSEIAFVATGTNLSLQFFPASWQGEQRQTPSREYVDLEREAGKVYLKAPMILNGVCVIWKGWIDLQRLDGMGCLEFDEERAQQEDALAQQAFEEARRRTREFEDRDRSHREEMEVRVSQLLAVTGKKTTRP

| SMILES | Potency | activity, negative = inhibition |
| --- | --- | --- |
| Cc1ccc(S(=O)(=O)Nc2cccc3ccc(C)nc23)cc1 | inconclusive [activator, partial curve, poor fit] | – |
| c1ccc(Oc2cccc(OCCCCSc3ncccn3)c2)cc1 | inconclusive [activator, single point] | – |
| Nc1ccc(Br)c2c1C(=O)c1ccccc1C2=O | inconclusive [inhibitor, partial curve] | – |
| COc1ccc(CC(=O)NCc2ccc3c(c2)OCO3)cc1 | inactive | – |
| CCN1CCN(c2nc3c(c(=O)[nH]c(=O)n3C)n2CCSc2nc3ccccc3s2)CC1 | inactive | – |
| O=C(Nc1cc(Cl)cc2c1[nH]c1cnccc12)c1cccnc1 | inconclusive [activator, single point] | – |
| Cc1n[nH]c(=O)nc1N/N=C/c1cccs1 | inconclusive [inhibitor, full curve] | – |
| COC(=O)C1(Cc2ccc(O)cc2)OC(=O)C(O)=C1c1ccc(O)cc1 (stereo not drawn) | inconclusive [inhibitor, single point] | – |
| O=c1[nH]c2ccc(N/C(=N/S(=O)(=O)c3ccccc3)c3ccccc3)cc2[nH]1 | inactive | – |
| CCc1ccc2oc(-c3cc(N)cc(C)c3O)nc2c1 | inactive | – |
| CCCn1c(N/N=C(C)\C=C\c2ccccc2)nc2c1c(=O)[nH]c(=O)n2C | inconclusive [inhibitor, single point] | – |
| C=CCn1c(-c2ccc(=O)n(Cc3ccccc3)c2)n[nH]c1=S | inactive | – |
| COC1=CC(=O)O[C@@H](/C=C/c2ccc3c(c2)OCO3)C1 | inactive | – |
| CCN1CCN(Cc2cc(Br)cc(Br)c2O)CC1 | inconclusive [inhibitor, single point] | – |
| COc1cc(Cl)c(C)cc1NC(=O)c1ccc(NS(=O)(=O)c2ccc(F)c(F)c2)cc1 | inactive | – |
| O=C1c2ccccc2C(=O)N1CCCCN(C(=O)c1cc2ccccc2oc1=O)c1ccc(Cl)cc1 | inactive | – |
| CN(C(=O)C1CCC1C(=O)O)c1nc(-c2ccc(Cl)s2)cs1 (stereo not drawn) | inconclusive [activator, partial curve, poor fit] | – |
| CCCN1C(=O)c2cc(C(=O)Nc3ccccc3OC)ccc2C1Nc1ccccc1OC (stereo not drawn) | inconclusive [inhibitor, partial curve, poor fit] | – |
| Fc1ccccc1NC(=S)NNc1ncc(C(F)(F)F)cc1Cl | inactive | – |
| CCN(CC)CCOC(=O)c1ccc(N/C=C(/C#N)c2nc(-c3ccc4c(c3)OCO4)cs2)cc1 | inconclusive [activator, single point] | – |
| O=C(CCNc1ccc(Cc2ccncc2)cc1)c1cccc([N+](=O)[O-])c1 | inconclusive [inhibitor, single point] | – |
| CCOC(=O)C(C(C)=O)c1c(Br)c(O)c(O)c2c(C(=O)c3ccc(C)cc3)coc12 (stereo not drawn) | inactive | – |
| C=CCn1c(=O)n(CCOC)c(=O)c2sc3ccccc3c21 | inactive | – |
| Cc1cc(C)c2c(N)c(C(=O)Nc3ncc(C)s3)sc2n1 | inconclusive [activator, partial curve] | – |
| Cc1noc(C)c1COC(=O)CCCOc1ccc(Cl)cc1Cl | inconclusive [activator, partial curve] | – |

| SMILES | Potency | activity, negative = inhibition |
| --- | --- | --- |
| O=c1oc2ccccc2cc1-c1nc(-c2cccs2)cs1 | inconclusive [activator, partial curve] | – |
| O=C(O)CCC(=O)c1ccc2c(c1)OCCO2 | inactive | – |
| Cn1cnnc1SCc1ccc(-c2ccc(Br)cc2)o1 | inconclusive [inhibitor, single point] | – |
| CN(C)P(=NC(=S)c1cccn1C)(N(C)C)N(C)C | inactive | – |
| CCn1ccnc1CNCc1ccc(OCC(O)CN(C)Cc2ccccc2)cc1 (stereo not drawn) | inactive | – |
| CCOC(=O)c1c(NC(=O)CNCCOC)sc2c1CCCC2 | inactive | – |
| Nc1nonc1-c1nc2ccccc2n1CC(=O)N/N=C/c1ccc(-c2ccccc2C(=O)O)o1 | inconclusive [activator, single point] | – |
| C(=C\c1ccco1)/C=N/n1cnnc1 | inconclusive [inhibitor, single point] | – |
| CNc1ccc(/C=C(\CCC(=O)O)c2nc3ccccc3s2)cc1[N+](=O)[O-] | inconclusive [inhibitor, single point] | – |
| CCC1=C2CC[C@H]3C(=O)N(CC)C(=O)[C@H]3[C@H]2[C@@]2(Cc3ccccc3)C(=O)N(CCOC)C(=O)N2C1=O | inactive | – |
| CCCn1c(N)c(N2CCCCC2)c(=O)n(CC(=O)Nc2ccccc2)c1=O | inconclusive [inhibitor, single point] | – |
| Cc1ccc(F)c(C2C3C=CCCC3(C)C(=O)N2Cc2ccccc2)c1 (stereo not drawn) | inconclusive [activator, single point] | – |
| CC1=CC(C)(C)N2C(=O)C(=Nc3ccc(O)cc3)c3cccc1c32 | inconclusive [inhibitor, single point] | – |
| COC(=O)c1ccc(N2CCN(C(C)=O)CC2)c(NC(=O)c2cccnc2)c1 | inconclusive [inhibitor, single point] | – |
| O=P1(N(CCCl)CCCl)NCCCO1 (stereo not drawn) | inconclusive [activator, single point] | – |
| O=C(NCCc1ccccc1F)C1CCCN1S(=O)(=O)c1ccc2ccccc2c1 (stereo not drawn) | inactive | – |
| Nc1nc(-c2ccccc2)c(N=Nc2cccnc2)s1 | inconclusive [inhibitor, single point] | – |
| O=C(CCC(=O)c1ccc(Oc2ccccc2)cc1)Nc1cccc(Cl)c1Cl | inconclusive [activator, single point] | – |
| Cc1ccc(-c2[nH]c3ccccc3c2SCCNC(=O)c2ccc(S(=O)(=O)N3CCOCC3)cc2)cc1 | – | inactive: 0.0784% [at 2.36 µM] |
| CCOC(=O)C1=C(C)Nc2ccc(C)cc2S1 | inactive | – |
| Oc1ccc(CN2CCc3ccccc3C2)c2cccnc12 | inconclusive [inhibitor, partial curve] | – |
| COCC(C)N1C(=O)Cc2c1nc(N)c1c(N)nc(N3CCN(c4ccccc4F)CC3)c(C#N)c21 (stereo not drawn) | inconclusive [inhibitor, single point] | – |
| CC1(OC(=O)c2cccs2)C(=O)C=C2C=C3CCCN3C=C2C1=O (stereo not drawn) | inconclusive [inhibitor, single point] | – |
| COc1ccc(-c2cc(C3C4C=CCCC4(C)C(=O)N3Cc3ccccc3)ccc2F)cc1 (stereo not drawn) | inactive | – |
| Cn1c(=N)n(CC(=O)O)c2ccccc21 | inactive | – |

| SMILES | Potency | activity, negative = inhibition |
| --- | --- | --- |
| OCCNc1nc(N2CCCC2)nc(N2CCCC2)n1 | inactive | – |
| COc1ccc(C(Nc2ccc(S(=O)(=O)NCC3CCCO3)cc2)C(=O)NC(C)(C)C)cc1OC (stereo not drawn) | inactive | – |
| COc1ccc2c(c1)[nH]c1c(=O)n(/N=C/c3ccc(OC)c(COc4ccccn4)c3)cnc12 | inconclusive [inhibitor, single point] | – |
| CCN1C(=O)c2cccc3c(NC(=O)C4CCCCC4)ccc1c23 | inactive | – |
| CCC(=O)Nc1nnc(-c2ccccn2)o1 | inconclusive [inhibitor, partial curve] | – |
| COC(=O)c1c(-c2ccccc2)csc1NC1=NS(=O)(=O)c2ccccc21 | inconclusive [inhibitor, partial curve, poor fit] | – |
| COc1ccc(C=C(c2nc3ccccc3s2)c2nc3ccccc3s2)cc1O | inconclusive [inhibitor, single point] | – |
| CC(C)Cn1nc(NC(=O)c2ccco2)c2cc3ccccc3nc21 | inconclusive [activator, partial curve, poor fit] | – |
| Cc1cc2c(NC(=O)CCCC(=O)O)cccc2nn1 | inactive | – |
| CCc1ccc(OCC(=O)Nc2cccc3nsnc23)cc1 | inconclusive [activator, single point] | – |
| CNc1ccc2oc(C[C@@H]3OC4(CC[C@@H]3C)O[C@H]([C@@H](C)C(=O)c3ccc[nH]3)[C@H](C)C[C@H]4C)nc2c1C(=O)O (stereo partly drawn) | inconclusive [inhibitor, single point] | – |
| COC(=O)c1ccsc1NC(=O)CN1C(=O)CCC1=O | inactive | – |
| N#CC(C(=S)Nc1ccccc1)c1nc2ccccc2[nH]1 (stereo not drawn) | inconclusive [inhibitor, partial curve] | – |
| CN1CCc2cc3c(c4c2[C@H]1Cc1ccccc1-4)OCO3 | inconclusive [inhibitor, partial curve] | – |
| Clc1ccc(CO/N=C2\CCCc3nonc32)c(Cl)c1 | inconclusive [activator, partial curve] | – |
| O=C(CCC(=O)N1CCN(S(=O)(=O)c2ccc3ccccc3c2)CC1)Nc1cc(Cl)cc(Cl)c1 | inactive | – |
| COc1cc(/C=N/NC(=O)c2ccc(COc3ccccc3Cl)o2)cc(Br)c1O | inconclusive [activator, partial curve] | – |
| Nc1ccc2cc3ccccc3cc2c1 | inconclusive [inhibitor, partial curve] | – |
| O=C(NC(=S)Nc1cccc(CO)c1)c1ccc(-c2ccccc2)cc1 | inactive | – |
| O=C(CNS(=O)(=O)c1cccc2nsnc12)NC1CCCCC1 | inactive | – |
| c1ccc(-c2nnc(CN3CCN(c4ccccc4)CC3)o2)cc1 | inactive | – |
| COc1ccc(OC)c(NC2=C(Cl)C(=O)N(Cc3ccccc3)C2=O)c1 | inconclusive [inhibitor, partial curve] | – |
| O=[N+]([O-])c1cc([N+](=O)[O-])c2cccnc2c1Oc1ccccc1O | inconclusive [inhibitor, partial curve] | – |
